The whole screen tested about 48,000 compounds, of which about 120 (0.25%) were called active. About 4% were inconclusive and are not listed. Calls come from the whole dose curve; as a rule, active = well fitted activation curve with a large enough effect; inconclusive = small, poorly fitted or top-dose-only effect, or another doubt; inactive = no such curve, though single readings can be large or run the other way. The list shows a part of the results.
assay: Primary qHTS for Identification of Small Molecule Activators of Huntingtin-Antisense Promoter Activity; conditions: HEK293 HTT-AS promoter firefly luciferase reporter, 24 h; series mostly up to 57.5 µM; activity change, positive = activation: at the top concentration; note: nearly all actives have a fitted effect of over 55% in size
Summary of the method: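 Firefly luciferase signal from promoter-reporter HEK293 cells was scaled between vehicle (0%) and zero RLU (-100%). Compounds were tested at final concentrations of up to 57.5 uM over 24 h at 37 degrees C. PTC124 at 50 uM final served as control inhibitor.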

| Structure (SMILES) | activity change, positive = activation |
| --- | --- |
| CCc1nonc1NC(=O)c1oc2cc(C)c(Cl)cc2c1C | inactive: 8.17% |
| COc1ccccc1N1CCN(C(=O)c2sc3nc4n(c(=O)c3c2C)CCC4)CC1 | inactive: -3.42% |
| CCOc1ccc(C(=O)c2cn(Cc3ccccc3OC)c3cc4c(cc3c2=O)OCCO4)cc1 | inactive: -4.22% |
| CCCCN(CC)CCNC(=O)c1cn(CCOC)c(=O)c2c1c1ccccc1n2C | inactive: -3.46% |
| CCC(=O)N1CCc2cc(S(=O)(=O)CCC(=O)Nc3ccc(Cl)c(C(F)(F)F)c3)ccc21 | inactive: -40.8% |
| O=C(NC1CC(=O)N(c2cccc(F)c2)C1)c1ccc(S(=O)(=O)N2CCOCC2)cc1 (stereo unspecified) | inactive: -17.6% |
| COc1ccccc1CN1COc2ccc3c(C)cc(=O)oc3c2C1 | inactive: -3.21% |
| Cc1ccc(NC(=O)Cn2c(=O)oc3ccccc32)cc1Cl | inactive: -27.8% |
| CCOC(=O)c1ccc(NC(=O)CSc2ccc(-c3sc(C)nc3C)nn2)cc1 | inactive: -21.6% |
| CCN(CC)S(=O)(=O)c1ccc2c(c1)c(=O)c(C(=O)N(C)Cc1ccccc1)cn2C | inactive: -2.66% |
| Cc1cc(C)cc(NC(=O)CSc2nnc(COc3ccccc3Cl)o2)c1 | inactive: -1.7% |
| Cc1ccc(C)c(NC(=O)CCCN2C(=O)COc3ccc(C)cc32)c1 | inactive: -13.3% |
| Cn1cnc2c(=O)oc3ccc(S(=O)(=O)N4CCN(c5ccccc5)CC4)cc3c21 | inactive: 1.57% |
| CC(C)(C)OC(=O)N1CCC(c2c(C(=O)Nc3cccc(C(F)(F)F)c3)cnn2-c2ccc(F)cc2F)CC1 | inactive: -24.4% |
| COc1ccc(C)cc1NC(=O)c1cc2c(s1)-c1ccccc1SC2 | inactive: 14.7% |
| CCOC(=O)CC(NC(=O)Cn1nnc(-c2ccc(C(F)(F)F)cc2)n1)c1ccccc1Cl (stereo unspecified) | inactive: -15.3% |
| CC(=O)Nc1cc(C(=O)NCc2ccc(F)cc2)ccc1Sc1ccc(C)cc1 | inactive: -31.5% |
| CC1CCN(S(=O)(=O)c2ccc3ncn(CC(=O)Nc4ccccc4C(F)(F)F)c(=O)c3c2)CC1 | inactive: -34.2% |
| Cc1nn(-c2ccccc2)c(-n2cccc2)c1C(=O)NCc1ccccc1Cl | inactive: -28.7% |
| Cc1cc(OCC(=O)Nc2cnn(CCCC(=O)O)c2)ccc1Cl | inactive: -5.45% |
| O=C1CN(C(=O)c2ccc(Cl)cc2Cl)C(c2ccc(F)cc2)c2cc(F)ccc2N1 (stereo unspecified) | inactive: -12% |
| CCOC(=O)C1CCN(C(=O)CSc2n[nH]c(-c3ccccc3Cl)n2)CC1 | inactive: -8% |
| CN(C)c1ccc(C(CNC(=O)Cc2ccc(Cl)cc2)N2CCOCC2)cc1 (stereo unspecified) | inactive: -25.9% |

| Structure (SMILES) | activity change, positive = activation |
| --- | --- |
| Cc1ccc(CCNC(=O)CN2C(=O)COc3ccc(S(=O)(=O)N4CCCCC4)cc32)cc1 | inactive: -16.4% |
| Cc1ccc(Nc2nnc(-c3ccc(C)c(S(=O)(=O)N4CCCCC4)c3)c3ccccc23)cc1 | inactive: 1.7% |
| CCOc1ccc2c(c1)[C@@H]1C=CC[C@@H]1[C@H](c1ccccc1Cl)N2 | inactive: -15.2% |
| COc1ccc(OC)c(NCc2cccn2-c2nnc(N3CCC(C)CC3)s2)c1 | inactive: -11% |
| CC(C)(C)OC(=O)N1CCC(c2c(C(=O)Nc3ccc4c(c3)OCCO4)cnn2-c2ccc(F)cc2)CC1 | inactive: 10.7% |
| Cc1ccc(CNC(C)c2ccccc2)s1 (stereo unspecified) | inactive: -0.325% |
| Cc1cccc(-c2nc3c(cnn3-c3ccccc3)c(=O)n2-c2cccc(Cl)c2)c1 | inactive: -16.1% |
| O=C(NCCc1ccccc1)c1ccc2c(c1)N(Cc1ccccc1)C(=O)c1ccccc1S2=O (stereo unspecified) | inactive: -19.2% |
| CCOC(=O)C1CCN(c2cc3c(cc2NC(=O)c2ccc(OC)c(OC)c2)n(C)c(=O)n3C)CC1 | inactive: -27.3% |
| CC1CCCCN1S(=O)(=O)c1ccc(F)c(C(=O)Nc2ccccc2C(F)(F)F)c1 (stereo unspecified) | inactive: 2.75% |
| COC(=O)c1ccccc1C(=O)c1ccc(OCCN2CCCCC2)cc1 | inactive: -5.17% |
| CCC(C)NC(=O)Cn1c(=O)n(CCCC(=O)NCc2ccc(C)cc2)c(=O)c2ccccc21 (stereo unspecified) | inactive: -4.62% |
| Cc1cn2c(=O)cc(COc3cc(C)c(Cl)c(C)c3)nc2s1 | inactive: -11.9% |
| CCOc1ccc(NC(=O)CN(c2ccccc2OCC)S(=O)(=O)c2ccccc2)cc1 | inactive: 1.76% [at 11.5 µM, percent change from vehicle, -100% = no light] |
| Cc1cc(Cl)ccc1NS(=O)(=O)c1ccc2c(c1)CCN2S(C)(=O)=O | inactive: -6.67% |
| Cc1cc(=O)n(Cc2cccc(Br)c2)c2c1c(C)nn2-c1ccccc1 | inactive: -0.876% |
| COc1ccc(S(=O)(=O)N2CCN(Cc3nc4ccc(C)cc4o3)CC2)cc1OC | inactive: -22.6% |
| CCCn1c2ccccc2c2cnn(CC(=O)Nc3cccc(C(=O)OCC)c3)c(=O)c21 | inactive: -26.8% |
| CC(C)OC(=O)c1cc2c(OCC(O)CNC(C)(C)C)cccc2[nH]1 (stereo unspecified) | inactive: -11.9% |
| CCOc1ccc(CNC(=O)CN2C(=O)CCn3nc(-c4cn(C)c5ccccc45)cc32)cc1OC | inactive: -8.73% |
| CCOc1ccc(NC(=O)CSc2cc(C)c3ccccc3n2)cc1 | inactive: -3.27% |
| O=C(NCc1cccs1)c1nn(-c2ccccc2)nc1CO | inactive: -27.9% |
| COc1ccc(CCNC(=O)Cc2c(C)c3c(cc(C)c4c(C)c(C)oc43)oc2=O)cc1OC | inactive: -2.82% |

| Structure (SMILES) | activity change, positive = activation |
| --- | --- |
| Cc1ccc(NC(=O)Cn2c(=O)n(-c3ccc(C)cc3)c(=O)c3ccc(C(=O)NCc4ccccc4Cl)cc32)cc1 | inactive: -64.1% |
| Cc1ccc(S(=O)(=O)c2nc(-c3ccco3)oc2SC(C)C)cc1 | inactive: -11.9% |
| CC(=O)Nc1nonc1-c1nnc(SCc2ccc(F)cc2Cl)n1C | inactive: -6.37% |
| Cc1cc(C)cc(NC(=O)c2sc3nc(-c4ccccc4)cn3c2C)c1 | inactive: -26% |
| Cc1ccc(NC(=O)CN2Cc3ccccc3C2=O)c(C)c1 | inactive: 5.31% |
| CCOC(=O)c1cccc(NC(=O)CCS(=O)(=O)c2ccc(Br)s2)c1 | inactive: -26.7% |
| COc1ccc(/C=C/C(=O)Nc2ccc3nc(N4CCC(C)CC4)cc(C)c3c2)cc1OC | inactive: -28.6% |
| Cc1c(C)n(Cc2ccc(F)cc2)c2ccc(C(=O)N3CCN(c4ccc(Cl)cc4)CC3)cc12 | inactive: -14.3% |
| Cn1c(=O)c2c(nc(SCC(=O)Nc3ccc(F)cc3F)n2Cc2ccccc2)n(C)c1=O | inactive: -33.3% |
| COc1cccc(C2C(C(=O)Nc3ccc(Cl)cc3)=C(C)Nc3c(C(=O)Nc4ccccc4)cnn32)c1OC (stereo unspecified) | inactive: -28.8% |
| CC1(C(=O)NC2CCCCC2)Cc2ccccc2C(=O)N1Cc1ccc(Cl)cc1 (stereo unspecified) | inactive: -2.2% |
| Cc1oc2ncnc(N3CCCCC3)c2c1C(=O)Nc1cccc(Cl)c1C | inactive: -21.2% |
| CCC1CCCCN1S(=O)(=O)c1ccc(NC(=O)c2nc(SC)ncc2Cl)cc1 (stereo unspecified) | inactive: -25.7% |
| Cn1c2c(c(=O)n(C)c1=O)C(c1cc(Br)ccc1F)CC(=O)N2 (stereo unspecified) | inactive: -11.1% |
| Cc1nc2cc(-c3ccccc3)nn2c(C)c1CCC(=O)NCCc1ccccc1 | inactive: -74% |
| Cc1ccc2[nH]c(CSc3nnc(NC(=O)COc4ccccc4C)s3)cc(=O)c2c1 | inactive: -30.2% |
| Cc1cccc(C)c1NC(=O)c1c(C)oc2c1C1=NCCN1C=N2 | inactive: 6.11% |
| COc1ccc(CC(=O)Nc2ccc(-c3nc4ccccc4s3)cc2Cl)cc1OC | inactive: -12.6% |
| COc1ccc(Nc2cc(C(=O)NCCCN(C)c3ccccc3)c3ccccc3n2)c(OC)c1 | inactive: -14.3% |
| CCOC(=O)c1ccc(Nc2nc(N)c3cc(OC)c(OC)cc3n2)cc1 | inactive: -9.86% |
| COC(=O)c1ccc(NC(=O)c2cc(S(=O)(=O)N3CCC(C)CC3)cn2C)cc1 | inactive: -11.9% |
| Cc1c(Cl)cccc1-n1c(SCC(=O)NCc2ccccc2)nc2n[nH]c(C)c2c1=N | inactive: -56.7% |
| Cc1ccc(Nc2cc(=O)[nH]c(=O)[nH]2)cc1C | inactive: -0.408% |

| Structure (SMILES) | activity change, positive = activation |
| --- | --- |
| COc1cccc(C(=O)N2CC(=O)Nc3ccc(C)cc3C2c2ccc(F)cc2)c1OC (stereo unspecified) | inactive: -6.29% |
| Cc1ccc(C(=O)N2c3ncnn3C3(CCCCC3)[C@@H]3CCCC[C@@H]32)cc1 | inactive: -29.9% |
| COc1ccc(OC)c(CNC(=O)CCc2c(C)nc3c(c2C)c(=O)n(C)c(=O)n3C)c1 | inactive: -10.2% |
| Cc1ccc2oc(=O)c(-c3nc4ccc(C)cc4[nH]3)cc2c1 | inactive: 22.2% |
| CS[C@H]1SC[C@@H]2C(=O)N(C)[C@H](C(C)C)C(=O)OC[C@H](NC(=O)c3cnc4ccccc4n3)C(=O)N[C@H](C)C(=O)N(C)[C@@H]1C(=O)N(C)[C@H](C(C)C)C(=O)OC[C@H](NC(=O)c1cnc3ccccc3n1)C(=O)N[C@H](C)C(=O)N2C | inactive: -30.6% |
| CCCOc1ccc(CNC(=O)C(C)n2nc(C)n3c(cc4occc43)c2=O)cc1 (stereo unspecified) | inactive: -13.4% |
| COc1ccc(Cl)cc1NC(=O)CSc1nnc(C)n2c1cc1sccc12 | inactive: -1.54% |
| CC1CCN(C(=O)c2ccccc2NC(=O)c2nsc3ccccc23)CC1 | inactive: -6.99% |
| CCc1cccc(NC(=O)C2CCCN2S(=O)(=O)c2ccc3c(c2)n(C)c(=O)c(=O)n3C)c1 (stereo unspecified) | inactive: 16.7% |
| COc1ccc(-n2c(SCC(=O)Nc3cc(C)cc(C)c3)nc3c(oc4ccccc43)c2=O)cc1 | inactive: -1.79% |
| CCOc1ccc(-c2cc(NC(=O)c3c(F)cccc3F)c(C(=O)OC)s2)cc1 | inactive: -8.17% |
| COc1ccccc1N1CCN(C(=O)c2nc(-c3ccc(C)cc3)n3c2CCCCC3)CC1 | inactive: -35.3% |
| COc1ccc(NC(=O)c2cc(S(=O)(=O)N3CCCCC3)c[nH]2)cc1Cl | inactive: -24.5% |
| Cc1ccc(Cl)cc1NC(=O)c1cnn2c(C(F)F)cc(-c3ccccc3)nc12 | inactive: -3.15% |
| COC(=O)c1c(NC(=O)C(C)Oc2ccc(Cl)cc2Cl)sc2c1CCCC2 (stereo unspecified) | inactive: -5.81% [at 11.5 µM, percent change from vehicle, -100% = no light] |
| Cc1cc(C)c(/C=C/c2onc(C)c2S(=O)(=O)N2CCC(C(=O)NCC(C)c3ccccc3)CC2)c(C)c1 (stereo unspecified) | inactive: -18% |
| Cc1cc(NC(=O)CC(C)C)cc(-c2nc3ncccc3o2)c1O | inactive: -7.06% |
| CC(C)[N+](C)(CCOC(=O)C1c2ccccc2Oc2ccccc21)C(C)C | inactive: -10.3% |
| CCn1cc(C(=O)NCCCN2CCC(C)CC2)c(=O)c2cc(S(=O)(=O)N(C)C3CCCCC3)ccc21 | inactive: -12.6% |
| COc1ccc(C(=O)c2oc3ccccc3c2NC(=O)COc2cccc(C)c2)cc1 | inactive: -5.78% |
| CN1CCC[C@@H]1Cc1c[nH]c2ccc(CCS(=O)(=O)c3ccccc3)cc12 | inactive: -0.68% |
| Cc1nn(C)c2c1c(-c1ccccc1)cc(=O)n2C(C)C(=O)NCCc1ccc(Cl)cc1 (stereo unspecified) | inactive: -20.8% |

— PubChem BioAssay AID1508624 (National Center for Advancing Translational Sciences (NCATS), 2021)
